In the supplement of paper PMC7125110:
This sample is rich in variants without activity.

B1: glmS ribozyme (parent)
chain: AUAAAAGCGCCAGAACUACAGAAAUGUAGUUGACGAGGAGGAGGUUUAUCGAAUUUUCGGCGGAUGCCUCCAAA

Assays:
Conditions in all cases: with glucosamine-6-phosphate
[1] = variants of: B1; test: self-cleavage kobs at 40 uM GlcN6P; higher = faster cleavage; RNA array
Procedure, shortened: (§1)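 Glucosamine-6-phosphate, from 40 μM to 10 mM in HEPES/KCl/Mg(OAc)2 buffer, was flowed over sequenced MiSeq chips carrying barcoded ribozyme variants transcribed in situ by E. coli RNA polymerase. A hybridised Cy3 probe tracked the variants at 37 °C as tiles were imaged over ~14 h. kobs, kcat and KM were obtained by fitting normalised per-tile medians to exponential decays and then applying weighted Michaelis–Menten fits across concentrations.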

[2] = variants of: B1; test: self-cleavage kobs at 10000 uM GlcN6P; higher = faster cleavage; RNA array
Procedure, shortened: as §1

[3] = variants of: B1; test: self-cleavage kobs at 640 uM GlcN6P; higher = faster cleavage; RNA array
Procedure, shortened: as §1

[4] = variants of: B1; test: self-cleavage kobs at 160 uM GlcN6P; higher = faster cleavage; RNA array
Procedure, shortened: as §1

[5] = variants of: B1; test: self-cleavage kobs at 2500 uM GlcN6P; higher = faster cleavage; RNA array
Procedure, shortened: as §1

| Variant | self-cleavage kobs at 40 uM GlcN6P [1] | self-cleavage kobs at 10000 uM GlcN6P [2] | self-cleavage kobs at 640 uM GlcN6P [3] | self-cleavage kobs at 160 uM GlcN6P [4] | self-cleavage kobs at 2500 uM GlcN6P [5] |
| --- | --- | --- | --- | --- | --- |
| AUAAAAUCCCGCGAACUACAGAAAUGUAGUUGACGAGGAGGAGGUUUAUCGAAUAUUCGGCGGAUGCCUCCAAA | < 1e-05 s⁻¹ | < 1e-05 s⁻¹ |  |  |  |
| AUAAAACCGCCAGAAAUACAGAAAUGUAGUUGACGAGGAGGAGGUUUAUCGAAUUUUCGGCGGAUGCCUCCAAA | < 1e-05 s⁻¹ |  |  |  |  |
| AUAAAACCGCCAGAACUACAGAAAUGUAGUUGACGAGGAUGAGGUUUAUCGAAUUUUCGGCGGAUGCCUCUAAA | < 1e-05 s⁻¹ |  | < 1e-05 s⁻¹ |  |  |
| AUAAAAUCGCCAGUACUACAGAAAUGUAGACGACGAGGAGGAUGUUUAUCGAACUUUGGUCGGAUGCGUCCAAA | < 1e-05 s⁻¹ | < 1e-05 s⁻¹ |  |  |  |
| AUAAAACCGCCAGAACUACAGAAAUGUAGUUGACGAGGAGGAGGUUUAUCGAAUUUUCGGCGGAUGCCUCUAAA | < 1e-05 s⁻¹ | < 1e-05 s⁻¹ | < 1e-05 s⁻¹ | < 1e-05 s⁻¹ |  |
| AUAAAACCGCCAGAACUACAGAAAUGUAGUUGACGAAGAGGAGGUUUAUCGAAUUUUCGGCGGAUGCCUCCAAA | < 1e-05 s⁻¹ | < 1e-05 s⁻¹ | < 1e-05 s⁻¹ | < 1e-05 s⁻¹ |  |
| AUAAAAUCGCCAGAACUACAGAAAUGUAGUUGACGAGGAGGCGGAUUAUCGAAUUCUCGGCGGAUGCCUGCAAA | < 1e-05 s⁻¹ |  |  |  |  |
| AUAAAAUCGCCAGAACUACAGAAAUGUAGUUGACGCGGAGGAGGUUUAUCGAAUUUUCGGCGGAUGCCUCCAAA | < 1e-05 s⁻¹ | < 1e-05 s⁻¹ | < 1e-05 s⁻¹ |  | < 1e-05 s⁻¹ |
| AUAAAAUCGCCAGAACUACAGAAAUGUAGUUGUCGAGGAGGAGGUUUAUCGAAUUUUCGGCGGAUGCCUCCAAA | < 1e-05 s⁻¹ |  |  |  | < 1e-05 s⁻¹ |
| AUAAAACCGCCAGAACUACAGAAAUGUACUUGACGAGGACGAGGUUUAUCGAAUUUUCGGCGGUUGCCUCGAAA | < 1e-05 s⁻¹ |  |  |  |  |
| AUAAAACCGCCAGAACUACAGAAAUGUAGUUGACGAGGACGAGGUUUAUCGAAGUUUCGGCAGAUGCCUCCAAA | < 1e-05 s⁻¹ |  |  |  |  |
| AUAAAACCGCCAGAACUACAGAAAUGUAGUUGACGAGGAGGAGGUUGAUCGAAUUUUCGGCGGAUGCCUCCAAA | < 1e-05 s⁻¹ | < 1e-05 s⁻¹ |  |  |  |
| AUAAAACCGCCAGAACUACAGAAAUGUAGUAGACGAGGAGGAGGUUUAUCGAAUUUUCGGCGGAUGCCUCCAAA | < 1e-05 s⁻¹ | < 1e-05 s⁻¹ | < 1e-05 s⁻¹ |  | < 1e-05 s⁻¹ |
| AUAAAACCGCCAGAACUACAGAAAUGUAGGUGACGAGGAGGAGGUUUAUCGAGUUUUCGACGGAUGCCAACAAA | < 1e-05 s⁻¹ | < 1e-05 s⁻¹ |  |  |  |
| AUAAAACCGCCAGAACUACAGAAAUGUAGUUGACGAGGAGGAGGUAUAUCGAAUUUUCGGCGGAUGCCUCCAAA | < 1e-05 s⁻¹ | < 1e-05 s⁻¹ | < 1e-05 s⁻¹ |  | < 1e-05 s⁻¹ |
| AUAAAAUCCCCAGAACUACAGAAAUGUAGUUGACGAGGAGGAGGUUUAUCGAAUUUUCGGCGGAUGCCUCCAAA | < 1e-05 s⁻¹ |  | < 1e-05 s⁻¹ | < 1e-05 s⁻¹ |  |
| AUAAAAUCGCCAGAAGUACAGAAAUGUAGUUGACGAGGAGGAGGUUUAUCGAAUUUUCGGCGGAUGGCUUCAAA | < 1e-05 s⁻¹ |  |  |  | < 1e-05 s⁻¹ |
| AUAAAACCACCAGAACUACAGAAAUGUAGUUGACGAGGGGGAGGUUUAUGGAAUAUUCGGCGGAUGCCUCCAAA | < 1e-05 s⁻¹ |  |  |  |  |
| AUAAAACCGCCAAAACUACAGAAAUGUAGUUGACGAGGAGGAGGUUUAUCGAAUUUUCGGCGGAUGCCUCCAAA | < 1e-05 s⁻¹ | < 1e-05 s⁻¹ | < 1e-05 s⁻¹ | < 1e-05 s⁻¹ | < 1e-05 s⁻¹ |
| AUAAAAUCGCCAGAACUACAGAAAUGUAUUUGACUAGGAGUAGGUUUAUCGAAUUUUCGGCGGAUGCCUGCAAA | < 1e-05 s⁻¹ |  |  |  | < 1e-05 s⁻¹ |
| AUAAAAUCGCCAGAACUACAGAAAUGUAGUUGACGUGGACGAGGUUUAUCGAAUUUUCGGCGGAUGCCUCCAAA | < 1e-05 s⁻¹ |  |  |  |  |
| AUAAAACCGCCAGAACUACAGAAAUGUAGUUGACUAGGAGGAGGUUUAUCGAAUUUUCGGCGGAUGCCUCCAAA | < 1e-05 s⁻¹ |  |  | < 1e-05 s⁻¹ | < 1e-05 s⁻¹ |
| AUAAAACCGCCAGAACUACAGAAAUGUAGUUGACGAGUAGGAGGUUUAUCGAAUUUUCGGCGGAUGCCUCCAAA | < 1e-05 s⁻¹ | < 1e-05 s⁻¹ | < 1e-05 s⁻¹ | < 1e-05 s⁻¹ |  |
| AUAAAACCGCCAGAACUACAGAAAUGUAGUUGACGAGGAGGAGGUUUAUCGAAUUUGCGGCGGAUGCCUCCAAA | < 1e-05 s⁻¹ | < 1e-05 s⁻¹ | < 1e-05 s⁻¹ | < 1e-05 s⁻¹ | < 1e-05 s⁻¹ |
| AUAAAACCGCCAGAACUACAGAAAUGUAGUUGACGAGGAGAAGGUUUAUCGAAUUUUCGGCGGAUGCCUCCAAA | < 1e-05 s⁻¹ | < 1e-05 s⁻¹ | < 1e-05 s⁻¹ | < 1e-05 s⁻¹ |  |
| AUAAAACCGACAGAACUACAGAAAUGUAGUUGACGAGGAGGAGGUUUAUCGAAUUUUCAGCGGAUGCAUCCAAA | < 1e-05 s⁻¹ | < 1e-05 s⁻¹ |  |  |  |
| AUAAAAUCGCCAGGACUACAGAAAUGUAGUUCACGAGGUGGAGGUUUAUCGAAUUUUCGGCGGAUGCCUCCAAA | < 1e-05 s⁻¹ |  |  |  |  |
| AUAAAACCGCCAGAACUACAGAAAUGUAGUUGACGAGGAGGAGGUUUAUCGAAUUUUCGGCGAAUGCCUCCAAA | < 1e-05 s⁻¹ | < 1e-05 s⁻¹ | < 1e-05 s⁻¹ |  |  |
| AUAAAAUCGCGAGAACUACAGAAAUGUAGUUAACGAGGAUGAGGUUUAUCGAAUUUUCGGCGGAUGCCUCCAAA | < 1e-05 s⁻¹ | < 1e-05 s⁻¹ |  |  |  |
